# Source: article PMC4081100
# The list shows a part of the results, in another mix than the full data. For some assays here: At the low end of the ranking the order means little. Some of the results follow. For some assays here: The exact form of the protein is not confirmed.
# Assays:
# Assay in all cases: universal protein binding microarray (PBM)
# Details in all cases: transcription factors of Arabidopsis thaliana; high values mean tight binding; most listed sequences are background and not binding sites; double strand, one strand shown
# GST-NTL6(1-168) = GST-NTL6(1-168) (UniProt Q9SCK6)
# GST-ANAC019 NAC domain = molecular target: T1, GST-ANAC019 NAC domain (UniProt Q9C932)
# T1 sequence: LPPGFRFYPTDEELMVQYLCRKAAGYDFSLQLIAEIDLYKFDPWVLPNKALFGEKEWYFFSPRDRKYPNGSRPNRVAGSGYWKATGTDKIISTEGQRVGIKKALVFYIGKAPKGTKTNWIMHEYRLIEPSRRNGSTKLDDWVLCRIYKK
# GST-NTL8 NAC domain = molecular target: T2, GST-NTL8 NAC domain (UniProt Q9XIN7)
# T2 sequence: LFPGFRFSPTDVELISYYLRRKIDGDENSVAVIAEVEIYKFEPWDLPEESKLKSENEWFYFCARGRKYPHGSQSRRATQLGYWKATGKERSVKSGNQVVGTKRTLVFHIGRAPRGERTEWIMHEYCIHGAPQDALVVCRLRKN
# GST-VND7 NAC domain = molecular target: T3, GST-VND7 NAC domain (UniProt Q9C8W9)
# T3 sequence: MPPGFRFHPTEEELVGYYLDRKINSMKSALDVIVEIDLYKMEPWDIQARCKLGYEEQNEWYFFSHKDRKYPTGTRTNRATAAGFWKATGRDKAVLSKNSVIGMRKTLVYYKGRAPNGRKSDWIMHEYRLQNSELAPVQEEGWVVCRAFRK
# [1] = molecular target: T4, GST-VOZ2 (Arabidopsis thaliana) (UniProt Q9SLB9)
# T4 sequence: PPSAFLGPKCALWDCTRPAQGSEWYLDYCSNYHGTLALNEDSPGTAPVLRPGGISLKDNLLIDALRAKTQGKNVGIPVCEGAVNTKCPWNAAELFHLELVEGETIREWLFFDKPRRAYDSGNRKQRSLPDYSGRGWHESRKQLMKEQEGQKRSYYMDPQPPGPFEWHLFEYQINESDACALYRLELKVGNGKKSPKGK
# GST-WRKY1(266-371) = GST-WRKY1(266-371) (UniProt Q9SI37)
# [2] = molecular target: T5, GST-ANAC092(1-285) full length (UniProt Q9FKA0)
# T5 sequence: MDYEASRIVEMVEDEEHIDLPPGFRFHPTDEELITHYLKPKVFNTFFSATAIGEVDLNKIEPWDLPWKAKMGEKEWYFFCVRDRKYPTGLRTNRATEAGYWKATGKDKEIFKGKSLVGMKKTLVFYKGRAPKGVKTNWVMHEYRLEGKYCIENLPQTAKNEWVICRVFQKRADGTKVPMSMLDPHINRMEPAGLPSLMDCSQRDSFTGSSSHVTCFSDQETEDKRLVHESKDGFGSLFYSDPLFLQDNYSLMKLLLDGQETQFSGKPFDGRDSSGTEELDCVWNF
# GST-NAP(1-166) = molecular target: T6, GST-NAP(1-166) (UniProt O49255)
# T6 sequence: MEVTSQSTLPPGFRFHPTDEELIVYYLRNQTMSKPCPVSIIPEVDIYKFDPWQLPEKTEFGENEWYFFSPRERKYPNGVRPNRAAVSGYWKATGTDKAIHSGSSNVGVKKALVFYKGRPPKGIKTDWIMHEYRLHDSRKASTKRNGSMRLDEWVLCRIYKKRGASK
# GST-ANAC055(1-171) = molecular target: T7, GST-ANAC055(1-171) (UniProt Q9LDY8)
# T7 sequence: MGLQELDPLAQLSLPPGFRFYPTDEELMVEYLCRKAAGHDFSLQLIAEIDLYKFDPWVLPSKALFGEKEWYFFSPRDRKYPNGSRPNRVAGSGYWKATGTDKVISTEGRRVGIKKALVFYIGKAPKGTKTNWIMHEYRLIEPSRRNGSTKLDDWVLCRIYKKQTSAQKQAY
# GST-NST2(1-184) = molecular target: T8, GST-NST2(1-184) (UniProt Q9M274)
# T8 sequence: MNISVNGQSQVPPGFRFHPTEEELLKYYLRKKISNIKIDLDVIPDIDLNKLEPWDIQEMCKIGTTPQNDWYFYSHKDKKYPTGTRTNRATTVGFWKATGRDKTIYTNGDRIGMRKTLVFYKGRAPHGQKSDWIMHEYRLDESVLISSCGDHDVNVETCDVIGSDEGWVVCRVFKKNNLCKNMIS
# GST-ATAF1 NAC domain = molecular target: T9, GST-ATAF1 NAC domain (UniProt Q39013)
# T9 sequence: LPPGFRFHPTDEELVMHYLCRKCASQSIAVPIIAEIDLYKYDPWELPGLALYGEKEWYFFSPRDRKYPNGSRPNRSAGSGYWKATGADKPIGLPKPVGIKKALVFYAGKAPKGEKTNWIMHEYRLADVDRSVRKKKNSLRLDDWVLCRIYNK
# GST-ANAC092(1-176) = molecular target: T10, GST-ANAC092(1-176) (UniProt Q9FKA0)
# T10 sequence: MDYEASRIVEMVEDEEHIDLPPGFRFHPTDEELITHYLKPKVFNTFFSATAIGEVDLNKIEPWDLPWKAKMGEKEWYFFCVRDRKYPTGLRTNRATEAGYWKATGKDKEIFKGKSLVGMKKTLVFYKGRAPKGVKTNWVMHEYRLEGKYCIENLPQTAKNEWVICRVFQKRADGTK
Sequence,binding signal (GST-NTL6(1-168)),binding signal (GST-ANAC019 NAC domain),binding signal (GST-NTL8 NAC domain),binding signal (GST-VND7 NAC domain),binding signal [1],binding signal (GST-WRKY1(266-371)),binding signal [2],binding signal (GST-NAP(1-166)),binding signal (GST-ANAC055(1-171)),binding signal (GST-NST2(1-184)),binding signal (GST-ATAF1 NAC domain),binding signal (GST-ANAC092(1-176))
ATACTTAA,0.445 E-score,0.0287 E-score,0.154 E-score,0.106 E-score,0.022 E-score,-0.126 E-score,,,,,,
TGCACGCA,-0.0893 E-score,0.355 E-score,-0.0147 E-score,0.32 E-score,0.0267 E-score,-0.168 E-score,0.458 E-score,0.265 E-score,,,,
GGCGTGTA,-0.0585 E-score,0.198 E-score,-0.0443 E-score,-0.00476 E-score,0.141 E-score,-0.1 E-score,,0.13 E-score,,,,
GAAACGTA,0.0734 E-score,0.241 E-score,,0.268 E-score,0.0109 E-score,-0.0124 E-score,,0.223 E-score,0.219 E-score,0.212 E-score,,
CCACGCTA,0.0243 E-score,0.155 E-score,,0.0402 E-score,0.0992 E-score,-0.0759 E-score,,-0.0239 E-score,-0.0151 E-score,,-0.021 E-score,
GACACGGC,-0.154 E-score,0.42 E-score,0.0582 E-score,0.348 E-score,-0.0746 E-score,-0.0304 E-score,0.387 E-score,0.237 E-score,,-0.0307 E-score,,
ATGGCGTA,-0.102 E-score,-0.114 E-score,0.0267 E-score,0.192 E-score,0.016 E-score,-0.102 E-score,,,0.0256 E-score,,,
CTTACGTA,0.161 E-score,,,0.433 E-score,0.0457 E-score,0.0499 E-score,0.435 E-score,,,,,
CTTACTTC,0.413 E-score,,0.4 E-score,0.23 E-score,0.116 E-score,0.0256 E-score,,-0.0305 E-score,,,,
AGTCAACA,0.0859 E-score,0.125 E-score,,0.0805 E-score,-0.0554 E-score,0.488 E-score,,-0.0353 E-score,0.0844 E-score,0.0624 E-score,,
GCAAGGAA,0.418 E-score,,,0.229 E-score,0.0652 E-score,-0.0313 E-score,0.371 E-score,,0.211 E-score,,0.18 E-score,
CACGGCAA,0.0683 E-score,,0.0895 E-score,0.444 E-score,0.0419 E-score,0.0404 E-score,,,,,0.364 E-score,
GGACGCAA,-0.076 E-score,,-0.103 E-score,0.0578 E-score,0.0459 E-score,-0.0703 E-score,,,,,0.0919 E-score,
CACGACAC,-0.0228 E-score,,,0.348 E-score,-0.129 E-score,-0.057 E-score,0.355 E-score,,0.372 E-score,,,
ATACGGAA,0.0254 E-score,,,0.38 E-score,-0.0916 E-score,-0.00982 E-score,,,,0.223 E-score,,
ACGTTAGC,-0.0979 E-score,,-0.0549 E-score,0.128 E-score,0.0242 E-score,-0.0388 E-score,,,0.0938 E-score,,,
AAGGAATC,0.42 E-score,-0.00477 E-score,,0.0278 E-score,-0.0879 E-score,-0.0502 E-score,,-0.224 E-score,-0.00846 E-score,,0.0816 E-score,
AACACGTT,-0.0691 E-score,,0.132 E-score,0.203 E-score,-0.0565 E-score,-0.0466 E-score,,0.259 E-score,0.284 E-score,0.222 E-score,,
ACACGCCT,-0.112 E-score,,-0.0806 E-score,-0.0333 E-score,0.00269 E-score,-0.11 E-score,,0.0122 E-score,0.173 E-score,0.0466 E-score,,
AACACGGA,0.0315 E-score,,0.0255 E-score,0.362 E-score,0.0321 E-score,-0.0321 E-score,0.274 E-score,,,0.173 E-score,,
ACGCAAAT,0.0591 E-score,0.268 E-score,0.0579 E-score,0.281 E-score,0.137 E-score,0.0212 E-score,,,,0.265 E-score,0.262 E-score,
CAAGGAAA,0.31 E-score,,0.46 E-score,0.181 E-score,0.0854 E-score,0.0889 E-score,,0.0952 E-score,,,,
CACGTAAG,,,0.17 E-score,0.447 E-score,-0.0655 E-score,0.0233 E-score,0.446 E-score,,,,,0.449 E-score
TACCTTAA,0.42 E-score,-0.00139 E-score,0.298 E-score,0.0949 E-score,0.0461 E-score,-0.141 E-score,,-0.0262 E-score,,0.149 E-score,,
GTTGCGTA,0.184 E-score,0.461 E-score,0.216 E-score,0.466 E-score,0.31 E-score,0.0239 E-score,,0.477 E-score,0.431 E-score,,0.415 E-score,
ATGCGTGC,-0.0926 E-score,0.276 E-score,-0.0402 E-score,0.138 E-score,-0.0917 E-score,-0.151 E-score,,,,,,
ACGTTATC,0.0401 E-score,-0.00417 E-score,-0.13 E-score,0.0197 E-score,-0.00308 E-score,0.0471 E-score,,0.162 E-score,,,,
CACGCAAC,0.0393 E-score,,0.181 E-score,0.484 E-score,0.275 E-score,-0.0587 E-score,,,0.463 E-score,,,
ACACGTTA,-0.0829 E-score,,0.00655 E-score,0.237 E-score,0.034 E-score,-0.085 E-score,,0.222 E-score,,,,
CGAGGAAA,0.138 E-score,0.0533 E-score,0.442 E-score,0.173 E-score,0.1 E-score,-0.155 E-score,,0.0581 E-score,0.139 E-score,,,
